# Measurements from paper PMC5892938.
# The list shows a part of the results. At the low end of the ranking, values are background and their order means little.
# Target: GST-SBP-SLBP (stem-loop binding protein) (UniProt Q14493)
# Experiment: targeted RNA Bind-n-Seq;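 further: DESeq read counts versus GST-SBP nonspecific binding control pulldown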
# Settings: RBNS binding buffer: 25 mM Tris pH 7.5, 150 mM KCl, 3 mM MgCl2, 0.1% Tween, 0.5 mg/mL BSA, 1 mM DTT; 27 nM protein, 750 pM RNA pool; temperature not stated; high values mean tight binding
row,Sequence,binding signal (log2 fold change)
1,GGUCACGUCUCAAUCAACUCAUCUUCCAGGGAAAUCCCUGGCAUUUUCAACAGCUCGCAGUCAAG,0.187
2,GGUCACGUCUCAAUCAACUCUUACGAGGGGGGGAAAACCCCUUUACCCUCAAACUCAACAGCUCGCAGUCAAG,0.0503
3,GGUCACGUCUCAAUCAACUCAAGUCCCAGGGAAAGCCCUGGCAUAUUCAACAGCUCGCAGUCAAG,-0.157
4,GGUCACGUCUCAAUCAACUCUAACGAGGGGGGGAAAACCCCUUUACCCUCAUCCUCAACAGCUCGCAGUCAAG,0.151
5,GGUCACGUCUCAAUCAACUCUAUAGAGGGGGGGAAAACCCCUUUGCCCUCCAAAUCAACAGCUCGCAGUCAAG,-0.191
6,GGUCACGUCUCAAUCAACUCUUCGCCCAGGGAAACCCCUGGUUAAUUCAACAGCUCGCAGUCAAG,-0.419
7,GGUCACGUCUCAAUCAACUCUACUCCCAGGGAAAGCCCUGGUUAUUUCAACAGCUCGCAGUCAAG,0.0779
8,GGUCACGUCUCAAUCAACUCAUGUCCAGGAGUUUUCUCCUGCUAAUUCAACAGCUCGCAGUCAAG,-0.167
9,GGUCACGUCUCAAUCAACUCCUCAGAGGGGGGGAAAACCCCUUUACCCUCACAAUCAACAGCUCGCAGUCAAG,-0.106
10,GGUCACGUCUCAAUCAACUCUUUCGAGGGGGGGAAAACCCCUUUACCCUCUCCAUCAACAGCUCGCAGUCAAG,0.0484
11,GGUCACGUCUCAAUCAACUCUUUCUCAGGAGUUUACUCCUGCAAAUUCAACAGCUCGCAGUCAAG,0.0277
12,GGUCACGUCUCAAUCAACUCAUACGAGGGGGGGAAAACCCCUUUACCCUCACAAUCAACAGCUCGCAGUCAAG,-0.0493
13,GGUCACGUCUCAAUCAACUCAAUCCCAGGAGUUUACUCCUGCUAUGUCAACAGCUCGCAGUCAAG,0.112
14,GGUCACGUCUCAAUCAACUCUUUCUCCAGGGAAAUCCCUGGCAAAUUCAACAGCUCGCAGUCAAG,-0.0691
15,GGUCACGUCUCAAUCAACUCUAAAGAGGGGGGGAAAACCCCUUUACCCUCGUAUUCAACAGCUCGCAGUCAAG,-0.11
16,GGUCACGUCUCAAUCAACUCAUCUCCCAGGGAAAACCCUGGUAAUCUCAACAGCUCGCAGUCAAG,0.242
17,GGUCACGUCUCAAUCAACUCAAUCUCAGGAGUUUGCUCCUGUUUAUUCAACAGCUCGCAGUCAAG,-0.123
18,GGUCACGUCUCAAUCAACUCCUCAGAGGGGGGGAAAACCCCUUUGCCCUCCAAAUCAACAGCUCGCAGUCAAG,0.317
19,GGUCACGUCUCAAUCAACUCAUUAGAGGGGGGGAAAACCCCUUUGCCCUCACCAUCAACAGCUCGCAGUCAAG,0.0384
20,GGUCACGUCUCAAUCAACUCUAUCUCAGGAGUUUCCUCCUGCUAUUUCAACAGCUCGCAGUCAAG,0.0291
21,GGUCACGUCUCAAUCAACUCUUCUUCCAGGGAAAGCCCUGGCUAACUCAACAGCUCGCAGUCAAG,0.193
22,GGUCACGUCUCAAUCAACUCAACUUCCAGGGAAAGCCCUGGUAAUCUCAACAGCUCGCAGUCAAG,0.208
23,GGUCACGUCUCAAUCAACUCUUUUUCCAGGGAAACCCCUGGCAGUCUCAACAGCUCGCAGUCAAG,0.0257
24,GGUCACGUCUCAAUCAACUCUUCGCCAGGAGUUUACUCCUGUAUAUUCAACAGCUCGCAGUCAAG,-0.0239

row,Sequence,binding signal (log2 fold change)
1,GGUCACGUCUCAAUCAACUCAGUCUCAGGAGUUUCCUCCUGCAUUUUCAACAGCUCGCAGUCAAG,0.0195
2,GGUCACGUCUCAAUCAACUCUUCCCCAGGAGUUUUCUCCUGUUUAUUCAACAGCUCGCAGUCAAG,0.0761
3,GGUCACGUCUCAAUCAACUCAAUUCCAGGAGUUUUCUCCUGCUUAUUCAACAGCUCGCAGUCAAG,5.68e-05
4,GGUCACGUCUCAAUCAACUCAAUCCCCAGGGAAAUCCCUGGUAAAUUCAACAGCUCGCAGUCAAG,0.453
5,GGUCACGUCUCAAUCAACUCAAUAGAGGGGGGGAAAACCCCUUUACCCUCACCGUCAACAGCUCGCAGUCAAG,-0.0739
6,GGUCACGUCUCAAUCAACUCUUUUUCCAGGGAAACCCCUGGCUUUUUCAACAGCUCGCAGUCAAG,-0.29
7,GGUCACGUCUCAAUCAACUCUCCGGAGGGGGGGAAAACCCCUUUACCCUCAUAUUCAACAGCUCGCAGUCAAG,0.03
8,GGUCACGUCUCAAUCAACUCAAUCCCCAGGGAAAGCCCUGGCAUUCUCAACAGCUCGCAGUCAAG,-0.00141
9,GGUCACGUCUCAAUCAACUCAUUCUCAGGAGUUUCCUCCUGUAUACUCAACAGCUCGCAGUCAAG,-0.0228
10,GGUCACGUCUCAAUCAACUCUAUUUCCAGGGAAACCCCUGGCUAAUUCAACAGCUCGCAGUCAAG,0.0719
11,GGUCACGUCUCAAUCAACUCAACUUCCAGGGAAAGCCCUGGCAUACUCAACAGCUCGCAGUCAAG,-0.193
12,GGUCACGUCUCAAUCAACUCUACUCCAGGAGUUUUCUCCUGCUUACUCAACAGCUCGCAGUCAAG,-0.102
13,GGUCACGUCUCAAUCAACUCCCACGAGGGGGGGAAAACCCCUUUACCCUCCAUAUCAACAGCUCGCAGUCAAG,0.134
14,GGUCACGUCUCAAUCAACUCAUUUCCCAGGGAAACCCCUGGCAUAUUCAACAGCUCGCAGUCAAG,0.236
15,GGUCACGUCUCAAUCAACUCCAACGAGGGGGGGAAAACCCCUUUACCCUCAAAAUCAACAGCUCGCAGUCAAG,-0.12
16,GGUCACGUCUCAAUCAACUCUUUCUCCAGGGAAAACCCUGGCAAAUUCAACAGCUCGCAGUCAAG,0.163
17,GGUCACGUCUCAAUCAACUCUACUUCCAGGGAAAUCCCUGGCUAUCUCAACAGCUCGCAGUCAAG,0.17
18,GGUCACGUCUCAAUCAACUCUAUAGAGGGGGGGAAAACCCCUUUGCCCUCAAAUUCAACAGCUCGCAGUCAAG,0.103
19,GGUCACGUCUCAAUCAACUCUAUCUCAGGAGUUUCCUCCUGUUUACUCAACAGCUCGCAGUCAAG,-0.000934
20,GGUCACGUCUCAAUCAACUCUAUCGCAGGAGUUUACUCCUGGUUUCUCAACAGCUCGCAGUCAAG,0.00963
21,GGUCACGUCUCAAUCAACUCAAUCUCAGGAGUUUGCUCCUGUUUUUUCAACAGCUCGCAGUCAAG,-0.203
22,GGUCACGUCUCAAUCAACUCUUCCCCCAGGGAAACCCCUGGUUUACUCAACAGCUCGCAGUCAAG,0.0598
23,GGUCACGUCUCAAUCAACUCCUUAGAGGGGGGGAAAACCCCUUUACCCUCAACCUCAACAGCUCGCAGUCAAG,0.395
